Data taken from paper PMC13034042.
Residue numbers refer to the chain shown, from its start. In names and notes the source's numbering stands. Results are given in words; binding and its absence hold for the method and conditions named. Some results given as binding are weak or reduced against the parent protein; the word gives no strength. For part of these data: Sequences can lack the tags named with a protein.

Key:
Assay in all cases: two-hybrid; Y2H in reporter strain PJ69-4A; G4BD bait and G4AD prey from monocopy plasmids (ADH1 promoter); growth on SC-HLT (HIS3) and SC-ALT (ADE2) plates, 3 days at 30°C
[1] = target: T1, Bcl1, full length, Y2H fusion (S. cerevisiae) (UniProt P53962)
T1 sequence: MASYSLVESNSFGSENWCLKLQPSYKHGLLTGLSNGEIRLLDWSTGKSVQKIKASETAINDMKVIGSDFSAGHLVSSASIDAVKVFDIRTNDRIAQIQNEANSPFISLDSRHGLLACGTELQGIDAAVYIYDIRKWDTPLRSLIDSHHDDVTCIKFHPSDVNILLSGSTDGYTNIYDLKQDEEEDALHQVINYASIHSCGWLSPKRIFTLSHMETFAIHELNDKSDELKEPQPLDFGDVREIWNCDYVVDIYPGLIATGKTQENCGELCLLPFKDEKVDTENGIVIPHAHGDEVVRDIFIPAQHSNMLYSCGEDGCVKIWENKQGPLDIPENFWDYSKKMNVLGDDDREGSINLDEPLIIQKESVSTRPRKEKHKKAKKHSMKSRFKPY

[2] = target: T2, Bcl1.323C P388A/Y389A, Y2H fusion (S. cerevisiae) (UniProt P53962)
T2 sequence: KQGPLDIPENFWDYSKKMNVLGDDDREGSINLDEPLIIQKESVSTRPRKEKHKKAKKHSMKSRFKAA

[3] = target: T3, Bcl1.323C R385A, Y2H fusion (S. cerevisiae) (UniProt P53962)
T3 sequence: T2 sequence with R63A, A66P, A67Y

[4] = target: T4, Bcl1.323C R385A/P388A/Y389A, Y2H fusion (S. cerevisiae) (UniProt P53962)
T4 sequence: T2 sequence with R63A

[5] = target: T5, Bcl1.323C Y389A, Y2H fusion (S. cerevisiae) (UniProt P53962)
T5 sequence: T2 sequence with A66P

[6] = target: T6, Bcl1.323C, Y2H fusion (S. cerevisiae) (UniProt P53962)
T6 sequence: T2 sequence with A66P, A67Y

[7] = target: T7, Bcl1.364C P388A/Y389A, Y2H fusion (S. cerevisiae) (UniProt P53962)
T7 sequence: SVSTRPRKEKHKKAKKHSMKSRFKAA

[8] = target: T8, Bcl1.364C R385A, Y2H fusion (S. cerevisiae) (UniProt P53962)
T8 sequence: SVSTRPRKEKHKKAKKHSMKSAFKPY

[9] = target: T9, Bcl1.364C R385A/P388A/Y389A, Y2H fusion (S. cerevisiae) (UniProt P53962)
T9 sequence: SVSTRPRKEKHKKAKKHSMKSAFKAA

[10] = target: T10, Bcl1.364C Y389A, Y2H fusion (S. cerevisiae) (UniProt P53962)
T10 sequence: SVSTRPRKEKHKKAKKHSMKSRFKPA

[11] = target: T11, Bcl1.364C, Y2H fusion (S. cerevisiae) (UniProt P53962)
T11 sequence: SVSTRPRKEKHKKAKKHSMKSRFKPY

[12] = target: T12, Hrp1.504C, Y2H bait (S. cerevisiae) (UniProt Q99383)
T12 sequence: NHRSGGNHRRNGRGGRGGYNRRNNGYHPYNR

B1: Kap104.305C, Y2H prey (domain or fragment, UniProt P38217 305-918)
chain: ATSPNIPEHILQPYVKDIVPILLSKMVYNEESIVLLEASNDDDAFLEDKDEDIKPIAPRIVKKKEAGNGEDADDNEDDDDDDDDEDGDVDTQWNLRKCSAATLDVMTNILPHQVMDIAFPFLREHLGSDRWFIREATILALGAMAEGGMKYFNDGLPALIPFLVEQLNDKWAPVRKMTCWTLSRFSPWILQDHTEFLIPVLEPIINTLMDKKKDVQEAAISSVAVFIENADSELVETLFYSQLLTSFDKCLKYYKKKNLIILYDAIGRFAEKCALDETAMQIILPPLIEKWALLSDSDKELWPLLECLSCVASSLGERFMPMAPEVYNRAFRILCHCVELEAKSHQDPTIVVPEKDFIITSLDLIDGLVQGLGAHSQDLLFPQGTKDLTILKIMLECLQDPVHEVRQSCFALLGDIVYFFNSELVIGNLEDFLKLIGTEIMHNDDSDGTPAVINAIWALGLISERIDLNTYIIDMSRIILDLFTTNTQIVDSSVMENLSVTIGKMGLTHPEVFSSGAFANDSNWNKWCLSVNALDDVEEKSSAYMGFLKIINLTSTEVTMSNDTIHKIVTGLSSNVEANVFAQEIYTFLMNHSAQISAINFTPDEISFLQQFTS
[1]
  binding: binds
[2]
  binding: no binding
[3]
  binding: binds
[4]
  binding: no binding
[5]
  binding: no binding
[6]
  binding: binds
[7]
  binding: no binding
[8]
  binding: binds
[9]
  binding: no binding
[10]
  binding: no binding
[11]
  binding: binds
[12]
  binding: binds
